Results from PubChem BioAssay (NCI).
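Tested at 5 concentrations; 48 h exposure; 96-well plates; endpoints linearly interpolated, else capped at highest concentration. GI50 is the concentration that inhibits growth by half. At the TGI there is no net growth.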

System: NCI-H322M lung
Experiment: DTP human tumour cell line panel, 48 h

O=C(NNc1nc2cc(F)ccc2n2c(CN3CCCCC3)ccc12)c1cnccn1
GI50: 528 nM | TGI: 8.59 µM
